We go through 84 compounds from ChEMBL document CHEMBL4888484, “Replenishing the malaria drug discovery pipeline: Screening and hit evaluation of the MMV Hit Generation Library 1 (HGL1) against asexual blood stage Plasmodium falciparum ,using a nano luciferase reporter read-out” (2022).

Out of some 150,000 compounds screened, about 540 (0.36%) showed an effect of 50% or more. The list shows a part of the results.

This test concerns Plasmodium falciparum. Briefly: Primary screen in NF54 nanoGlo assay, in single point, at 2uM, 72h; a lower Z score goes with more inhibition. In kind it is functional, Erythrocyte. To be noted: timepoint 72 hour.
Regarding `Cn1ncc2c(N3CCc4[nH]nc(C5CC5)c4C3)nc(-c3cccnc3)nc21`, the “% Inhibition” value is -15% and the Z score amounted to 1.83.
The like results for `Cc1nc[nH]c1-c1nccn1-c1ccc2cn[nH]c2c1` were, in that order, -6% and 1.35.
For the compound `COc1cccc(-c2nc3sc(C(=O)N4CCOCC4)c(C)n3c2NC(C)(C)C)c1`, the “% Inhibition” value is listed as -3% and the Z score stood at 0.57.
In the same order, the values of `CC1(C)CC(NC(=O)c2sccc2C2CC2)CC(C)(C)N1` are 8% and -0.78.
The like results for `COc1cccc(CN(C)C(=O)c2ccon2)n1` were, in that order, -12% and 1.72.
In the case of `Cc1ccc(C(=O)N[C@H](CO)CN2CCCCC2)o1`, the “% Inhibition” value is given as -1% and the Z score came out at 0.12.
On to `Cc1noc(C)c1CN1CC[C@H](NC(=O)c2cscn2)[C@@H](O)C1`, for which the “% Inhibition” value was 4% and the Z score was -0.76.
In the case of `CN(Cc1cccnc1)Cc1cccc(-c2cccnc2)c1`, the “% Inhibition” value is on record as -7% and the Z score was determined as 0.92.
In the case of `C=C1CC[C@@H]2C[C@H]1C(c1ccc(N(C)C)cc1)OC2(C)C.CC1=CC[C@@H]2C[C@H]1C(c1ccc(N(C)C)cc1)OC2(C)C` (stereo partly drawn), the “% Inhibition” value is listed as -10% and the Z score is listed as 0.93.
With `O=C(CCCc1ccccc1)N1CC[C@H](N2CCc3ccccc3C2)C1`, the “% Inhibition” value was -13% and the Z score is given as 2.49.
As for `Cc1nc(CC(=O)N2C[C@@H]3CC[C@H]2CN(c2cnccn2)C3)cs1`, the “% Inhibition” value is listed as -9% and the Z score was 0.93.
Turning to `COCCN(C)Cc1ccnc(NC(=O)Cc2ccc(C)nc2)c1`, the “% Inhibition” value was -4% and the Z score came to 0.45.
Turning to `CC1CC(O)CN1C(=O)c1nn(-c2cccc(Br)c2)c2c1CCC2` (stereo not drawn), the “% Inhibition” value is -20% and the Z score is given as 1.73.
Take `CCc1nc(Cn2cnc3snc(C)c3c2=O)cs1`: the “% Inhibition” value is given as -18% and the Z score stood at 3.73.
In the same order, the values of `CCc1csc(N2C[C@H]3CCC[C@@]3(CO)C2)n1` are 6% and -0.66.
Take `CC(C)c1noc(-c2cccn3c(CNC(=O)CCC4CCCC4)nnc23)n1`: the “% Inhibition” value is reported as -19% and the Z score amounted to 3.75.
Turning to `Cc1ccc(C(=O)N[C@](C)(c2noc(C)n2)C2CC2)c(Cl)c1`, the “% Inhibition” value was -9% and the Z score turned out to be 1.62.
The like results for `CCCNC(=O)c1cnc(N2CCCC2)nc1` were, in that order, -9% and 1.77.
In the same order, the values of `Cc1n[nH]c(C)c2cc(C(C)(C)C)cc1-2` are 26% and -3.86.
With `O=C(c1ccc2nccnc2c1)N1C[C@@H]2CC[C@H]1CN(Cc1ccccn1)C2`, the “% Inhibition” value came out at 1% and the Z score is on record as -0.13.
Take `O=c1cc(-c2ccc(Cl)cc2)nc(N2CCN(C(c3ccccc3)c3ccccc3)CC2)[nH]1`: the “% Inhibition” value is recorded as -14% and the Z score is 2.03.
In the same order, the values of `Cc1ccc(S(=O)(=O)Nc2nc(C)c(C(=O)NCc3c(F)cccc3F)s2)cc1` are -1% and 0.09.
Regarding `CC[C@@H](C(=O)N1CCN(Cc2ccc3c(c2)OCO3)CC1)n1c(O)nc2ccccc2c1=O`, the “% Inhibition” value is -9% and the Z score came out at 1.26.
The like results for `CC1(C)C(O)CC1NC(=O)c1cc(Br)ccc1F` (stereo not drawn) were, in that order, 5% and -0.93.
Consider `O=C(c1ccncc1Br)N1CCCC[C@H]1c1ncon1`, for which the “% Inhibition” value is recorded as -12% and the Z score is reported as 1.79.
`Cc1ccc([C@H](CNC(=O)c2ccccc2F)N2CCC(C)CC2)o1`: the “% Inhibition” value is listed as -4% and the Z score came to 0.67.
As to `Cn1cccc1-c1cc2n(n1)CCC(=O)N2CCCC(=O)NCc1ccc2c(c1)OCO2`, the “% Inhibition” value is given as -13% and the Z score stood at 2.48.
Regarding `CC[C@H]1C(=O)NCCN1Cc1c(Br)cncc1OC`, the “% Inhibition” value is -4% and the Z score was found to be 0.54.
Turning to `COc1ccc(O)cc1CN1CC[C@H](CNC(=O)N2CCCC2)[C@@H](O)C1`, the “% Inhibition” value was -11% and the Z score is given as 1.26.
Turning to `Cc1nnc(NC(=O)NC(C)C2CCCO2)s1` (stereo not drawn), the “% Inhibition” value is recorded as -3% and the Z score came out at 0.46.
Turning to `c1c[nH]c(N2CCN(CC3CC4(CCC4)C3)CC2)n1`, the “% Inhibition” value is reported as -6% and the Z score is 0.84.
On to `CC(C)(C)CN1CCC[C@@]2(CCN(Cc3nc(-c4ccccc4)no3)C2)C1=O`, for which the “% Inhibition” value is listed as -13% and the Z score is 2.1.
Take `O=C(OC1CCN(CC(F)F)CC1)c1cnn2c1CCCC2`: the “% Inhibition” value worked out at 4% and the Z score is -0.6.
As for `CC(=O)c1cnc2c(-c3ccccc3)c(-c3cccc(Br)c3)nn2c1C`, the “% Inhibition” value is listed as -45% and the Z score was 5.22.
As for `O=C(c1ccnc(C2CC2)n1)N1CC(c2nc3ccccc3s2)C1`, the “% Inhibition” value is -15% and the Z score was found to be 1.36.
For the compound `c1nc(N[C@H]2C[C@@H](c3cc(N4CCOCC4)ncn3)C2)c2nc[nH]c2n1`, the “% Inhibition” value came out at 6% and the Z score is on record as -0.93.
`Cc1cc(C)n(Cc2c(C(=O)N[C@@H](C)CCc3ccccc3)noc2C)n1`: the “% Inhibition” value is reported as -7% and the Z score is reported as 0.69.
Turning to `CN1c2cc(F)c(NC(=O)C(C)(C)Oc3ccc(Cl)cc3)cc2N(C)S1(=O)=O`, the “% Inhibition” value is listed as -13% and the Z score worked out at 1.66.
Take `CCn1nccc1C(=O)N1C2CCC1Cn1c(nnc1-c1ccccc1)C2` (stereo not drawn): the “% Inhibition” value is -12% and the Z score was 1.62.
The like results for `O=C([C@@H]1COc2ccccc2O1)N1CC(n2ccnn2)C1` were, in that order, -4% and 0.49.
As for `CN(C)CCCn1ccnc1C1CCN(C(=O)c2ccc3c(c2)CCO3)CC1`, the “% Inhibition” value was -1% and the Z score is 0.11.
Take `Cc1cc(Oc2ccc(NC(=O)NCc3sccc3C)cc2)n[nH]1`: the “% Inhibition” value is listed as -6% and the Z score is 0.8.
Consider `CNC(=O)c1ccc(N(C)S(=O)(=O)N(C)C)cc1`, for which the “% Inhibition” value is recorded as -12% and the Z score is on record as 1.09.
For `COc1ccccc1Cn1nnnc1N1CCC(CO)(OC)CC1`, the “% Inhibition” value turned out to be 1% and the Z score is given as -0.11.
For the compound `O=C1CC[C@@H]2CN(c3ncnc4[nH]cnc34)CC[C@@H]2N1CCCn1ccnc1`, the “% Inhibition” value was -4% and the Z score was 0.75.
For `Cc1nn(Cc2nc(-c3c(F)cccc3F)cs2)c(N)c1C#N`, the “% Inhibition” value was 6% and the Z score was -1.11.
As for `Cc1cccc(CNC(=O)[C@H]2CCC(=O)N(C3CCCCCC3)C2)n1`, the “% Inhibition” value is on record as -5% and the Z score is 0.84.
Regarding `CCc1nc(CN2CC(N3CCCC[C@@H]3C)C2)n[nH]1`, the “% Inhibition” value is 0% and the Z score worked out at 0.03.
Regarding `CC(C)(C)OC(=O)N1CCC2CN(C(=O)CC#N)CC2C1` (stereo not drawn), the “% Inhibition” value was -5% and the Z score was 0.79.
With `O=C(NCc1ccco1)c1c[nH]c(=O)n(Cc2ccccc2F)c1=O`, the “% Inhibition” value came to 0% and the Z score is 0.05.
In the same order, the values of `CCc1ccccc1S(=O)(=O)N1CCN(c2nc3ccncc3n(C(C)C)c2=O)CC1` are -9% and 0.92.
For `O=C(Nc1cccs1)N1CC[C@H](Oc2cccc3cccnc23)C1`, the “% Inhibition” value is -27% and the Z score came to 5.07.
In the case of `Cc1nn([C@H]2CCS(=O)(=O)C2)c(C)c1N1CCN(C(=O)CCn2cnc3ccccc3c2=O)CC1`, the “% Inhibition” value is on record as -17% and the Z score was 3.01.
With `CC(C)(C)CCS(=O)(=O)N1CC(n2ccnn2)C1`, the “% Inhibition” value is -9% and the Z score is listed as 0.95.
As to `Cc1ccc(Cl)cc1NC(=O)c1sc(-n2nc(C)c(Cc3ccccc3)c2O)nc1C`, the “% Inhibition” value is recorded as -4% and the Z score came out at 0.46.
Consider `CCC(=O)N(CCCOC)Cc1c(-c2ccccc2)noc1N1CCOCC1`, for which the “% Inhibition” value is on record as 0% and the Z score is 0.02.
`Cc1nc(C(C)C)ccc1CN(CCO)S(C)(=O)=O`: the “% Inhibition” value is -29% and the Z score was 3.44.
In the same order, the values of `COc1ccc([C@@H](NCc2nnc(C)o2)C(F)(F)F)cc1` are -1% and 0.11.
For the compound `c1ccc(-c2ccnc(NCc3nnc4n3CCC4)n2)nc1`, the “% Inhibition” value is reported as -7% and the Z score came to 1.11.
As for `COc1ccc(NC(=O)N[C@@H](CC(C)C)c2nnc3ccccn23)cc1`, the “% Inhibition” value is on record as -15% and the Z score stood at 1.85.
The like results for `Cn1nc(C(=O)Nc2ccc(F)cc2)c(=O)c2ccccc21` were, in that order, -14% and 1.89.
As to `CCCN(C)Cc1nc2nc(C)cc(N(CC)CC)n2n1`, the “% Inhibition” value is on record as -13% and the Z score is recorded as 1.73.
As to `CC1(C)C(=O)Nc2cc(C(=O)NC[C@@]3(CCO)CCOC3)ccc21`, the “% Inhibition” value is 0% and the Z score stood at 0.07.
The like results for `Cn1nccc1CCNC(=O)c1csc(C(F)(F)F)n1` were, in that order, -7% and 0.71.
In the same order, the values of `CCNC(=O)NCCn1cc(-c2ccoc2)cn1` are -5% and 0.92.
For the compound `CC(C)(Cc1ccccc1)C(=O)Nc1ncccn1`, the “% Inhibition” value amounted to 3% and the Z score is -0.49.
For the compound `Cc1nc(N2CCOCC2)ncc1C(=O)NCc1cccc(Cl)c1`, the “% Inhibition” value is recorded as -16% and the Z score was determined as 2.53.
Turning to `C=CCNC(=O)N[C@H]1CCCC(F)(F)C1`, the “% Inhibition” value is -3% and the Z score was found to be 0.5.
In the same order, the values of `COc1nc(N2CCN(CC3CC3)[C@@H](CCO)C2)ncc1F` are -14% and 2.
Turning to `COc1cc(NC(C)=O)ccc1NCc1cnc(-c2ccco2)s1`, the “% Inhibition” value is -11% and the Z score is 1.43.
In the same order, the values of `N#Cc1ccc(S(=O)(=O)N2C[C@H](C(=O)NC3CCCCC3)C3(CCOCC3)C2)cc1` are 3% and -0.59.
For `CN(C[C@H]1CCCCO1)C1CCN(c2cccc(N3CCCC3=O)c2)CC1`, the “% Inhibition” value was -5% and the Z score is 0.76.
In the case of `Cc1cc2[nH]cc(C(=O)NCc3ccc(N4CCC[C@H](C)C4)cc3)c(=O)n2n1`, the “% Inhibition” value is recorded as 1% and the Z score is listed as -0.25.
The like results for `Cc1nonc1C(=O)N1CCC(c2nc3ccccc3o2)CC1` were, in that order, -17% and 3.26.
As to `Cc1nn(C)c2nc(-c3cccs3)cc(C(=O)N[C@@H](C)c3ccn(C)n3)c12`, the “% Inhibition” value is 27% and the Z score is given as -3.
In the case of `NC(=O)C1(NC(=O)c2ccc3c(c2)OCO3)CCOCC1`, the “% Inhibition” value is on record as -9% and the Z score is reported as 1.5.
The like results for `CC(C)(C)n1ncc2c1NC(=O)C[C@]21C(=O)Nc2c(Cl)cccc21` were, in that order, 22% and -2.5.
The like results for `Cc1cc(Cl)c2oc(C(=O)NCCc3ccco3)c(C)c2c1` were, in that order, -20% and 2.92.
Turning to `C[C@@H]1CN(Cc2ccccc2)CCN1C(=O)C1CCC(CNC(=O)OC(C)(C)C)O1` (stereo partly drawn), the “% Inhibition” value amounted to 2% and the Z score is -0.16.
For `Cc1nsc(C(=O)NCCC(C)C)n1`, the “% Inhibition” value is listed as -11% and the Z score is recorded as 1.7.
`CCn1nccc1CN(C)C(=O)[C@@](C)(O)C1CCOCC1`: the “% Inhibition” value was determined as 4% and the Z score was -0.59.
In the same order, the values of `COCCN(CC(C)C)C(=O)C(C)C(NC(=O)OC(C)(C)C)c1ccccc1` (stereo not drawn) are 2% and -0.34.
Consider `O=C(c1ccccc1NCc1ccn(C2CCCC2)n1)N1CCC[C@H](O)C1`, for which the “% Inhibition” value was -12% and the Z score worked out at 1.77.
Regarding `Cc1c(NC(=O)c2nn(-c3ccc(Cl)cc3)ccc2=O)c(=O)n(-c2ccccc2)n1C`, the “% Inhibition” value is 3% and the Z score is recorded as -0.52.
